Laboratory results as given in publication PMC11995724, “Antibiotic target discovery by integrated phenotypic and activity-based profiling of electrophilic fragments” (Cell chemical biology, 2025).
About 110 (3.4%) of roughly 3,200 compounds showed an effect of 50% or more. Some of the results follow.

Each compound was assayed on T1, V. cholerae SAD30. Details: relative growth, OD600, LB; 25 µM; inhibitor.
T1 construct: SAD30
Design: species or system S. aureus MSSA476 (TSB) or V. cholerae SAD30 (LB); 384-well bacterial growth screen at 25 uM, OD600 relative to DMSO control

| SMILES | % of control remaining [%] |
| --- | --- |
| CN(C(=O)c1ccccc1)C1CC2CCC(C1)N2C(=O)CCl (stereo not shown) [5-J03, N-[8-(2-chloroacetyl)-8-azabicyclo[3.2.1]octan-3-yl]-N-methylbenzamide] | 111.8 |
| CC(C)C(=O)Nc1ccc(C(=O)CCl)cc1 [10-D04, N-[4-(2-chloroacetyl)phenyl]-2-methylpropanamide] | 37.405 |
| CC(Cl)C(=O)NCCc1cn(C)nn1 (stereo not shown) [7-A14, 2-chloro-N-[2-(1-methyl-1H-1,2,3-triazol-4-yl)ethyl]propanamide] | 82.7358 |
| Cc1ccc(N2C(=O)C=CC2=O)c([N+](=O)[O-])c1 [10-N13, 1-(4-methyl-2-nitrophenyl)-2,5-dihydro-1H-pyrrole-2,5-dione] | 27.1186 |
| C=CC(=O)N(Cc1ccccc1)Cc1ccccc1 [1-P04, N,N-dibenzylprop-2-enamide] | 99.8528 |
| C=CC(=O)NCC1CCN(S(=O)(=O)C(F)(F)F)CC1 [1-A03, N-[(1-trifluoromethanesulfonylpiperidin-4-yl)methyl]prop-2-enamide] | 100.448 |
| CC(C)NC(=O)C(C#N)=Cc1ccccc1 [8-L05, 2-cyano-3-phenyl-N-(propan-2-yl)prop-2-enamide] | 76.8865 |
| O=C(CCl)Nc1ccccc1C(=O)NCc1ccccc1 [4-C03, N-benzyl-2-(2-chloroacetamido)benzamide] | 113.694 |
| O=C(CCl)NCC(=O)N(c1ccccc1)c1ccccc1 [7-B12, 2-chloro-N-[(diphenylcarbamoyl)methyl]acetamide] | 83.9253 |
| C=CC(=O)N(C)CC(=O)N1CCOC(c2ccccc2Cl)C1 (stereo not shown) [2-J04, N-{2-[2-(2-chlorophenyl)morpholin-4-yl]-2-oxoethyl}-N-methylprop-2-enamide] | 90.9679 |
| CCN(CC(=O)NC1CCS(=O)(=O)C1)C(=O)CCl (stereo not shown) [4-I19, 2-chloro-N-{[(1,1-dioxo-1lambda6-thiolan-3-yl)carbamoyl]methyl}-N-ethylacetamide] | 104.723 |
| N#CC(=Cc1ccccc1Cl)C(=O)Nc1cccc2ncccc12 [8-C15, 3-(2-chlorophenyl)-2-cyano-N-(quinolin-5-yl)prop-2-enamide] | 75.9347 |
| N#CC(C(=O)Nc1ccccc1)=C1NCCCN1 [8-H10, 2-cyano-2-(1,3-diazinan-2-ylidene)-N-phenylacetamide] | 69.6805 |
| O=C(CCl)c1ccoc1 [10-O09, 2-chloro-1-(furan-3-yl)ethan-1-one] | 123.281 |
| CC(Cl)C(=O)N[C@@H]1CCc2c(C#N)cccc21 (stereo partly drawn) [6-P14, 2-chloro-N-[(1R)-4-cyano-2,3-dihydro-1H-inden-1-yl]propanamide] | 97.0708 |
| C=CC(=O)NCCC1=CCCCCC1 [1-P21, N-[2-(cyclohept-1-en-1-yl)ethyl]prop-2-enamide] | 98.8042 |

| SMILES | % of control remaining [%] |
| --- | --- |
| CC(NC(=O)C(C#N)=Cc1ccc(C(F)(F)F)cc1)c1ccccc1 (stereo not shown) [9-L21, 2-cyano-N-(1-phenylethyl)-3-[4-(trifluoromethyl)phenyl]prop-2-enamide] | 84.3644 |
| O=C(CCc1ccccc1)NC1CCN(C(=O)CCl)CC1 [5-L08, N-[1-(2-chloroacetyl)piperidin-4-yl]-3-phenylpropanamide] | 100.704 |
| COc1cc(C=C(C#N)C(N)=O)cc(OC)c1OC [9-K13, 2-cyano-3-(3,4,5-trimethoxyphenyl)prop-2-enamide] | 85.3161 |
| O=C(CCl)Nc1cc(-c2ccc3c(c2)CCC3)nn1-c1ccccc1 [6-J10, 2-chloro-N-[3-(2,3-dihydro-1H-inden-5-yl)-1-phenyl-1H-pyrazol-5-yl]acetamide] | 89.9422 |
| O=C(CCl)NCc1ccc(Cl)c(C(F)(F)F)c1 [7-D22, 2-chloro-N-{[4-chloro-3-(trifluoromethyl)phenyl]methyl}acetamide] | 92.5161 |
| Cc1nn(CC(F)(F)F)c(C)c1C1COCCN1C(=O)CCl (stereo not shown) [5-J13, 2-chloro-1-{3-[3,5-dimethyl-1-(2,2,2-trifluoroethyl)-1H-pyrazol-4-yl]morpholin-4-yl}ethan-1-one] | 96.3329 |
| C=CC(=O)NCC1(S(=O)(=O)CC)CC1 [3-O13, N-{[1-(ethanesulfonyl)cyclopropyl]methyl}prop-2-enamide] | 101.617 |
| C=CC(=O)Nc1cc(C(C)C)ccc1C(C)C [1-I21, N-[2,5-bis(propan-2-yl)phenyl]prop-2-enamide] | 82.3617 |
| Cc1c(C#N)c(NC(=O)CCl)n(Cc2ccco2)c1C [4-D09, 2-chloro-N-{3-cyano-1-[(furan-2-yl)methyl]-4,5-dimethyl-1H-pyrrol-2-yl}acetamide] | 98.1669 |
| C=CC(=O)Nc1sc2c(c1C(N)=O)CCCCC2 [1-F21, 2-(prop-2-enamido)-4H,5H,6H,7H,8H-cyclohepta[b]thiophene-3-carboxamide] | 88.1913 |
| CCOc1ccccc1C=C(C#N)C(=O)Nc1ccc(Cl)cc1 [8-B09, N-(4-chlorophenyl)-2-cyano-3-(2-ethoxyphenyl)prop-2-enamide] | 78.7899 |
| Cc1cccc(NC(=O)NC(=O)CCl)c1C [4-D21, 3-(2-chloroacetyl)-1-(2,3-dimethylphenyl)urea] | 104.033 |
| C=CC(=O)N1CCC(c2nc3ccccc3o2)CC1 [1-N18, 1-[4-(1,3-benzoxazol-2-yl)piperidin-1-yl]prop-2-en-1-one] | 100.098 |
| COc1ccc(C(NC(=O)CCl)C(C)C)cc1 (stereo not shown) [4-A13, 2-chloro-N-[1-(4-methoxyphenyl)-2-methylpropyl]acetamide] | 107.656 |
| COc1ccc(NC(=O)C(C#N)=Cc2cnc3c(C)cccn23)cc1 [9-L03, 2-cyano-N-(4-methoxyphenyl)-3-{8-methylimidazo[1,2-a]pyridin-3-yl}prop-2-enamide] | 95.7852 |
